# Measured values as given in ChEMBL document CHEMBL4888484, “Replenishing the malaria drug discovery pipeline: Screening and hit evaluation of the MMV Hit Generation Library 1 (HGL1) against asexual blood stage Plasmodium falciparum ,using a nano luciferase reporter read-out” (2022).
# Screen size: about 150,000 compounds; about 540 (0.36%) showed an effect of 50% or more. Some of the results follow.
# Test system: Plasmodium falciparum
# Assay: Primary screen in NF54 nanoGlo assay, in single point, at 2uM, 72h; a lower Z score goes with more inhibition
# Type: functional, Erythrocyte
# Details: timepoint 72 hour
SMILES,% Inhibition [%],Z score
O=C(NCc1ccc(Nc2ccncc2)cc1)[C@H]1CCS(=O)(=O)C1,-15,1.97
CCCNC(=O)Cn1ccc(-c2ccccc2)nc1=O,-13,1.82
Cc1cc(C(F)(F)F)nc(N2CC(c3ccnc(N)n3)C2)n1,-22,2.79
C[C@H]1CNCCN1C(=O)c1ccnc(C2CC2)n1,-2,0.22
Fc1ccc(/N=C2\NC3(CCCCC3)Cc3ccccc32)cc1F,-33,3.89
CN(C)S(=O)(=O)N1CCC(CNC(=O)c2ccc(Cl)s2)CC1,5,-0.62
OC1CCN(CCNCc2cnc(-c3ccc4ccccc4c3)nc2)CC1,-5,0.97
CCCc1cnc(NC(=O)N[C@H](CO)Cc2c[nH]c3ccccc23)s1,0,-0.05
COc1ccc(C(=O)c2cnc3cc(Cl)ccc3c2-c2ccccc2)cc1,-12,1.39
Cc1noc(C)c1CNC(=O)N(C)Cc1c(C)noc1C,-13,2.41
Cc1cccc(OCC(=O)Nc2cc3ccccc3cc2NC(=O)COc2cccc(C)c2C)c1C,4,-0.57
COc1ccc(C(=O)N[C@H]2CO[C@H]3[C@@H]2OC[C@H]3OC(=O)Nc2ccc(C(C)C)cc2)cc1,4,-0.65
CC(C)CN(C)C(=O)[C@H]1CCCN(C2CCN(Cc3ccncc3)CC2)C1,-8,1.52
CC(=O)c1ccc(N(C)C)cc1OCc1ccccc1F,10,-0.96
CCC(CC)NC(=O)N(Cc1ccc(OC)cc1OC)C1CCCC1,-14,2.17
Cc1cc(C)nc(N2CC3CC2CO3)n1 (stereo unspecified),-13,1.6
CN(Cc1ccccc1)C1CCCN(CC(O)C(F)(F)F)CC1 (stereo unspecified),-17,1.74
CCn1ncnc1-c1c(-c2ccccc2)ncn1Cc1ccc(CO)cc1,-14,1.54
CN1CC[C@H](NC(=O)N2CCC(Oc3cccc(C(F)(F)F)c3)CC2)C1=O,-11,1.3
CCc1nc([C@H](C)NC(=O)Nc2ncn(C)n2)cs1,-4,0.54
CCc1nc([C@H](C)NCc2nc(C3CC3)no2)cs1,0,0.08
S=c1sc2ccccc2n1CN1CCc2ccccc2C1,-40,4.7
CO[C@@H](CNC(=O)NCCc1cnc2c(Cl)cnn2c1)C1CC1,-3,0.38
CNCCCNC(=O)c1ccc(Br)cc1C,31,-4.52
O=C(Nc1cc(C2CCCC2)nn1-c1ccccc1)c1cccc(S(=O)(=O)N2CCOCC2)c1,-10,1.17
COc1cccnc1CC(=O)Nc1nnc(C(C)C)s1,-15,1.44
CCCCN1C[C@]2(CCCN(S(=O)(=O)c3cnoc3C)C2)CCC1=O,-9,1.74

SMILES,% Inhibition [%],Z score
C[C@H]1CCN(C)c2ccccc2N1S(=O)(=O)c1cnc2c(c1)c(=O)[nH]c(=O)n2C,5,-0.84
O[C@]12CCCC[C@H]1CN(Cc1cccc(OCCCn3ccnc3)c1)CC2,0,-0.06
CCNc1ncc(C(=O)Nc2c[nH]c(=O)c(C)c2)s1,-16,1.78
Cc1ccc(NC(=O)c2sc3ncnc(N(C)C4CCCCC4)c3c2C)cc1,-17,1.56
O=C(C1CC1C1CC1)N1CC2(CCCCC2)C1 (stereo unspecified),-28,3.26
O=C(COc1ccc2c(c1)OCO2)N1CCOC[C@@H](O)C1,-9,1.18
N#CC(c1ccccc1)C1CCCN1CC(=O)N1CCNC1=O (stereo unspecified),-12,1.19
Cc1[nH]c(C(=O)N2CCN(c3ccc(Cl)cc3)CC2)c(C)c1S(=O)(=O)N1CCOCC1,-5,0.72
CCOC1(C)CN(C(=O)Nc2csc(C)n2)C1,5,-0.55
O=C(CN1CC[C@@]2(CCCNC2=O)C1)NCc1ccccc1,-1,0.19
COCC(=O)N[C@@H]1CC[C@H]2CCOc3ccccc3C(=O)N3CCN(Cc4ccc(C#N)cc4)C[C@H]3C(=O)NC[C@H]1O2,-8,1.05
Cc1ccc(C)c(C(=O)N[C@@H](C)c2nc(-c3cccnc3)cs2)c1,0,-0.01
COc1cccc(C2=NC3(CCN(C(=O)c4ccc5c(c4)OCO5)CC3)NC2=O)c1,-12,1.53
CCCNC(=O)[C@@H]1COC2(CCN(C(=O)Cc3ccccc3)CC2)N1C(=O)c1ccc(OC)cc1,3,-0.37
Cc1nc(N2CCN(C)CC2)cc(N2CCN(C(=O)COc3ncccn3)CC2)n1,-7,1.14
CN(C(=O)c1cccs1)c1ncnc2ccsc12,-8,1.23
OCCN1CCN(CCCOCCc2ccccc2)CC1,-9,1.23
CCS(=O)(=O)N1C[C@@H]2CN(Cc3ccncc3)C[C@]2(c2nc(C)no2)C1,7,-0.96
CC(C)c1nnc(C2CCN(C(=O)c3ccc4nsnc4c3)CC2)o1,14,-1.87
CCCCN(C)C(=O)c1ccc2c(c1)N(CCC)C(=O)[C@@H]1CCC(=O)N21,1,-0.16
O=C(NC1(c2noc([C@H]3CCOC3)n2)CCCCCC1)c1ccnc2ccnn12,-11,1.79
Cc1ccc(-c2csc(NC(=O)CN3CCN(Cc4ccc(F)cc4Cl)CC3)n2)cc1C,-19,2.04
Cc1ncsc1CCC(=O)N1CCC([C@@H](O)CCc2ccccc2)CC1,-11,2.28
Cc1cccc(NS(=O)(=O)[C@H]2CCS(=O)(=O)C2)c1C,-5,0.54
O=C(CCOc1ccccc1)N1C[C@@H]2CC[C@H]1CN(Cc1ccccn1)C2,0,-0.03
CCCC1CCCCC1NC(=O)Cc1nnc(C2CCOCC2)[nH]1 (stereo unspecified),8,-0.9
